Measured values taken from the supplement of paper PMC7125110.
Variants at the background level are over-represented here.

B1: glmS ribozyme (parent)
chain: AUAAAAGCGCCAGAACUACAGAAAUGUAGUUGACGAGGAGGAGGUUUAUCGAAUUUUCGGCGGAUGCCUCCAAA

Tests used:
Details in all cases: with glucosamine-6-phosphate
glucosamine-6-phosphate [1] = variants of: B1; test: kcat; higher = faster cleavage; RNA array
In short: (§1)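 Barcoded ribozyme variants were transcribed in situ on sequenced MiSeq chips by E. coli RNA polymerase. At 37 °C, a hybridised Cy3 probe tracked them while glucosamine-6-phosphate (40 μM to 10 mM) in HEPES/KCl/Mg(OAc)2 buffer flowed in and tiles were imaged over ~14 h. Per-tile medians of signals normalised to baseline and to non-cleaving reference variants were fit to one- or two-exponential decays, giving kobs. kcat and KM came from weighted Michaelis–Menten fits across concentrations.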

glucosamine-6-phosphate [2] = variants of: B1; test: self-cleavage kobs at 640 uM GlcN6P; higher = faster cleavage; RNA array
In short: as §1

glucosamine-6-phosphate [3] = variants of: B1; test: self-cleavage kobs at 160 uM GlcN6P; higher = faster cleavage; RNA array
In short: as §1

glucosamine-6-phosphate [4] = variants of: B1; test: self-cleavage kobs at 10000 uM GlcN6P; higher = faster cleavage; RNA array
In short: as §1

glucosamine-6-phosphate [5] = variants of: B1; test: self-cleavage kobs at 40 uM GlcN6P; higher = faster cleavage; RNA array
In short: as §1

glucosamine-6-phosphate [6] = variants of: B1; test: self-cleavage kobs at 2500 uM GlcN6P; higher = faster cleavage; RNA array
In short: as §1

Row | Variant | kcat (glucosamine-6-phosphate [1]) [s⁻¹] | self-cleavage kobs at 640 uM GlcN6P (glucosamine-6-phosphate [2]) [s⁻¹] | self-cleavage kobs at 160 uM GlcN6P (glucosamine-6-phosphate [3]) [s⁻¹] | self-cleavage kobs at 10000 uM GlcN6P (glucosamine-6-phosphate [4]) [s⁻¹] | self-cleavage kobs at 40 uM GlcN6P (glucosamine-6-phosphate [5]) [s⁻¹] | self-cleavage kobs at 2500 uM GlcN6P (glucosamine-6-phosphate [6]) [s⁻¹]
1 | C10U A36C | < 1e-05 | – | – | – | – | –
2 | A33U G35C | < 1e-05 | < 1e-05 | < 1e-05 | < 1e-05 | – | –
3 | A12G A33C | < 1e-05 | – | – | – | – | –
4 | C10U C58U | < 1e-05 | < 1e-05 | < 1e-05 | – | < 1e-05 | < 1e-05
5 | U31G G51C | < 1e-05 | < 1e-05 | – | < 1e-05 | – | –
6 | U31C G38C | < 1e-05 | – | < 1e-05 | – | < 1e-05 | –
7 | G32C G37A | < 1e-05 | – | < 1e-05 | – | < 1e-05 | –
8 | G29U G60C | < 1e-05 | < 1e-05 | – | – | – | –
9 | A15U G43A | < 1e-05 | – | – | – | – | –
10 | G9U A48C C50G | < 1e-05 | < 1e-05 | – | – | – | –
11 | A6U A36C | < 1e-05 | < 1e-05 | – | < 1e-05 | – | –
12 | A42U G59A | < 1e-05 | < 1e-05 | – | – | < 1e-05 | < 1e-05
13 | A33C U56G C68U | < 1e-05 | – | – | < 1e-05 | – | –
14 | A36U G51U | < 1e-05 | – | – | < 1e-05 | < 1e-05 | < 1e-05
15 | C8G C11G G51U U57A C61A | < 1e-05 | – | – | < 1e-05 | < 1e-05 | –
16 | A12U A36C | < 1e-05 | – | < 1e-05 | – | – | –
17 | C10G G60A | < 1e-05 | < 1e-05 | – | < 1e-05 | – | –
18 | U31A G51U | < 1e-05 | < 1e-05 | < 1e-05 | – | – | –
19 | A6U G37C | < 1e-05 | – | – | – | < 1e-05 | –
20 | G29U A48C C50U | < 1e-05 | – | < 1e-05 | < 1e-05 | – | < 1e-05
21 | A36G C67G | < 1e-05 | – | – | – | – | –
22 | G37U U56C | < 1e-05 | < 1e-05 | < 1e-05 | – | < 1e-05 | –
23 | G7A A15C | < 1e-05 | – | – | – | < 1e-05 | < 1e-05

Row | Variant | kcat (glucosamine-6-phosphate [1]) [s⁻¹] | self-cleavage kobs at 640 uM GlcN6P (glucosamine-6-phosphate [2]) [s⁻¹] | self-cleavage kobs at 160 uM GlcN6P (glucosamine-6-phosphate [3]) [s⁻¹] | self-cleavage kobs at 10000 uM GlcN6P (glucosamine-6-phosphate [4]) [s⁻¹] | self-cleavage kobs at 40 uM GlcN6P (glucosamine-6-phosphate [5]) [s⁻¹] | self-cleavage kobs at 2500 uM GlcN6P (glucosamine-6-phosphate [6]) [s⁻¹]
24 | G9U C58G | < 1e-05 | < 1e-05 | < 1e-05 | < 1e-05 | – | –
25 | U57A G62U | < 1e-05 | < 1e-05 | – | – | – | –
26 | A36G A39U | < 1e-05 | – | < 1e-05 | – | – | –
27 | G44C G51C | < 1e-05 | – | – | < 1e-05 | < 1e-05 | –
28 | C10G A64G | < 1e-05 | < 1e-05 | – | – | – | –
29 | G51U U56G | < 1e-05 | – | – | < 1e-05 | – | < 1e-05
30 | A42C U57C | < 1e-05 | < 1e-05 | – | < 1e-05 | < 1e-05 | –
31 | A14C U49C | < 1e-05 | < 1e-05 | < 1e-05 | < 1e-05 | < 1e-05 | –
32 | U31A G60A | < 1e-05 | – | – | – | – | –
33 | C10A C19A U31G G66A C70U | < 1e-05 | – | – | – | – | –
34 | U56A G63A | < 1e-05 | < 1e-05 | < 1e-05 | – | < 1e-05 | –
35 | G35U A52G | < 1e-05 | – | – | – | < 1e-05 | –
36 | A33U C68A | < 1e-05 | – | < 1e-05 | < 1e-05 | < 1e-05 | –
37 | A33U C68G | < 1e-05 | – | – | – | < 1e-05 | –
38 | G44C C50A | < 1e-05 | < 1e-05 | – | – | < 1e-05 | < 1e-05
39 | U54A C61A | < 1e-05 | – | – | – | – | –
40 | G37U U55G | < 1e-05 | – | – | – | < 1e-05 | –
41 | C8U G62C | < 1e-05 | – | < 1e-05 | – | – | < 1e-05
42 | G41C G51U | < 1e-05 | < 1e-05 | – | – | – | –
43 | G29A U30A U69A | < 1e-05 | – | – | < 1e-05 | – | –
44 | A6U U57A | < 1e-05 | – | < 1e-05 | – | < 1e-05 | –
45 | G40A G44C | < 1e-05 | < 1e-05 | – | – | < 1e-05 | –
46 | G37U C70U | < 1e-05 | – | – | – | – | –
